# The list shows a part of the results.
# B1: chr1:193013303:193013404:-|3pUTR|ENSG00000116750|unk|FALSE|unique (ssRNA)
# RNA: GGGAGUUCUACAGUCCGACGAUCAAACCACUCUAGCUAUUUGAAGAGGAAUGCAGAUUUAUAUUGGGAGUUUUGAAACUACAUAGUUUCUUACAAAAUCAUUGGAAGGUUUGGAGGAGCGGUUUCAAGCUUAAGUCUCCAGAGCAACAGAGGAUUGAGCAUCA
# B2: chrX:120258281:120258382:+|3pUTR|ENSG00000177485|msi1|FALSE|bound_elsewhere (ssRNA)
# RNA: GGGAGUUCUACAGUCCGACGAUCUGUACAAUCUUCCCUGUCAUGACUUUAAGUUCUACUUUUCAUUAACCAUGGCCUGAUAUUAGUUCUUAGAGCUUCUUGUGGCAAAAAUAAAAUGAUUUAAUUCUGAUGUUUGAGUGCGUGCAACAGAGGAUUGAGCAUCA
# B3: chr3:9371215:9371332:+|CDS|ENSG00000134077|unk|total|mutant (ssRNA)
# RNA: GGGAGUUCUACAGUCCGACGAUCUGGACAAGAAGUCAAAAUCGAUCAGAGAAAUGUUAAAAAAGAGUUCACCCGCCAUGCUUCCGAUUCUCAUAUCUCCGAUUAUUAUGAAAAUCCAGCCAUCAAAGAGGAUGUAUCAACAUUCAACAGAGGAUUGAGCAUCA
# B4: ENSG00000198589:be:win_3401|CDS|ENSG00000198589|bound_else_gene|NA|bound_elsewhere_windowed (ssRNA)
# RNA: GGGAGUUCUACAGUCCGACGAUCUGUCUCCAGCUGCAUCUGAAGCCGGUGAAAAACUGGACAUGUUUGGUAAUGAUGACAAAUUAAUAUUUCAAGAAGGAAAACCUGUUACUGAAAAGCAAACUGAUACUGAAACUCAAGAUUCAACAGAGGAUUGAGCAUCA
# B5: chr7:76302746:76302847:+|CDS|ENSG00000106211|unk|total|mutant (ssRNA)
# RNA: GGGAGUUCUACAGUCCGACGAUCGUCCCCUUCUCGCUCCUGCGGGGCCCCAGCUGGGACCCCUUCCGCGACUGGUACCCGCACCGCCGCCUCUUCGACCAGGCCUUCGGGCUGCCCCGGCUGCCGGAGGAGUGGUCGCAGUGGCAACAGAGGAUUGAGCAUCA
# B6: chr3:58172026:58172127:+|3pUTR|ENSG00000136068|msi1|total|mutant (ssRNA)
# RNA: GGGAGUUCUACAGUCCGACGAUCGGCAGACCUUCCGGUUUUGCUGCUCCGUCCUGAGGAAGUGGCCACUCUUGUGGCAGGUGCCGUAUCUGGGGCGAGUGUUGGGGGUAAAAGCCCACCCUACAGAAAGUGGAACAGCCCGGACAACAGAGGAUUGAGCAUCA
# B7: chr8:116846039:116846140:-|3pUTR|ENSG00000164754|msi1|total|mutant (ssRNA)
# RNA: GGGAGUUCUACAGUCCGACGAUCACAUUCAAUAUGAUGUGCCUGUAAACCAAGGAGUUUUCCCCGUUUGUAAAAAGACAUUGCCGAUAAUUGAAUGUUUGAUUUCCGAAAGGUCAUCCGUUUCUUGUUACACAUUUUGUCCGUCAACAGAGGAUUGAGCAUCA
# B8: chr3:21421216:21421447:-|CDS|ENSG00000151789|control|control|control (ssRNA)
# RNA: GGGAGUUCUACAGUCCGACGAUCAUUAGUAUUUUCAAAAGAACCUUCAAAGCCAUUGGCUCCACGAAUUCUACCAAAUCCUCUAGCAGCUGCAGCAGCCGCAGCAGCAGUGGCAGUGAGUUCCCCCUUCAGUCUUCGAACUGCCAACAGAGGAUUGAGCAUCA
# B9: chr5:123575802:123575904:+|CDS|ENSG00000151292|unk|total|mutant (ssRNA)
# RNA: GGGAGUUCUACAGUCCGACGAUCACCUGAGAACUUCUUAACCGGACGACCAGGAAACAAAACCCAGCAAGUUAUUCACAUUACCGAUUUUGGUUUGGCAAAGGAAUAUAUUGAUCCGGAGACAAAGAAACACAUACCAUACAGCAACAGAGGAUUGAGCAUCA
# B10: chr4:152882748:152882856:+|CDS|ENSG00000164144|unk|FALSE|unique (ssRNA)
# RNA: GGGAGUUCUACAGUCCGACGAUCCAGAAACUGCUGGCUAAAAAUGGAGAGACUCUUCUUGGGGCCAUUAAUUUUUUCAUUGCUAGUGUGAACACUUUGGUGAAUAAAACCAUUGAAGAUACAUUAAUGACUGUGAAACAGUAUCAACAGAGGAUUGAGCAUCA
# B11: chr18:55223968:55224079:-|3pUTR|ENSG00000196628|unk|FALSE|unique (ssRNA)
# RNA: GGGAGUUCUACAGUCCGACGAUCUAUAAAGCUUUGUUUGUCUAGUGCUCUUUUGCUAUAAAAUAGACUGUAGUACACCCUAGUAGGAAAAAAAAAAAACUAAAUUUAAAAAUAAAAAAUAUAUUUGGCUUAUUUUUCGCAGGACAACAGAGGAUUGAGCAUCA
# B12: chr12:106239179:106239280:-|CDS|ENSG00000136026|msi1|FALSE|unique (ssRNA)
# RNA: GGGAGUUCUACAGUCCGACGAUCGGACCAAGCCCAGGCCGCCCGUCUGCCUCCUCAGGACUUCCUGGACAGACUUUCUUCUCUAGACAACCUGAAAGCCUCAGUCAGCCAAGUGGAGGCGGACUUGAAAAUGCUCAGGACUGCCAACAGAGGAUUGAGCAUCA
# B13: chr10:62095068:62095169:+|3pUTR|ENSG00000150347|msi1|FALSE|unique (ssRNA)
# RNA: GGGAGUUCUACAGUCCGACGAUCCCAUUUGCUUCAAUUAAUUAUUUACCUUCCUGUGGAAUAAUAUAUAUAUAUAUAUUUAAUAGAACCAUAGAUAGACUAGUAGAAUUUAGAUUAUAAAUGUGUGAGUGCAGAUUAUCCUGCCAACAGAGGAUUGAGCAUCA
# B14: ENSG00000160710:stop:overlap|stop_codon|ENSG00000160710|stop_codon|NA|stop_codon (ssRNA)
# RNA: GGGAGUUCUACAGUCCGACGAUCGCUAUGGGAACUGGAUUAGCAAACCCCAGGAGGAAAAGAACUUUUAUCUCUGCCCAGUAUAGUAUGCUCCAGUGACAGAUGGAUUAGGGUGUGUCAUACUAGGGUGUGAGAGAGGUAGGUCAACAGAGGAUUGAGCAUCA
# B15: chr20:54218986:54219149:+|CDS|ENSG00000101132|unk|total|mutant (ssRNA)
# RNA: GGGAGUUCUACAGUCCGACGAUCAAAUUUGCAAGAAGAAAUUGACGCCUCCGAAUCCAGAGUGGAAUCAAUUCAGCGAGUGUCCGCAGAUUUGAAAGUUCAGUUGUAUGCAAAAUUCGGGAGCAACAUAAACCUUGAAGCUGACAACAGAGGAUUGAGCAUCA
# B16: chr3:15667380:15667481:-|3pUTR|ENSG00000206560|msi1|total|mutant (ssRNA)
# RNA: GGGAGUUCUACAGUCCGACGAUCUAUACAUAAAAGAUGACAUCUGAAAUAUCUGAUGUGUAUUAUAAUACCAGCUUCUGCUCCCGAACUACUUUGGGUGAAAUGGUGGUAACCGCAAAUGACCUCCUUUAACAAGACACUCAUCAACAGAGGAUUGAGCAUCA
# B17: ENSG00000107863:be:win_1601|CDS|ENSG00000107863|bound_else_gene|NA|bound_elsewhere_windowed (ssRNA)
# RNA: GGGAGUUCUACAGUCCGACGAUCAGGAUGAUAGACGAGGUAUUUGUGAAAGACCUAGGCAGCAAGAAAUUCAUAAAUCUUUUCGAGGUUCCAAUUUUACUGUGGCUCCAAGCGUUGUUAAUUCUGAUAACAGGCGAAUGAGUGCAACAGAGGAUUGAGCAUCA
# B18: chr20:3649766:3649867:+|3pUTR|ENSG00000088812|unk|FALSE|bound_elsewhere (ssRNA)
# RNA: GGGAGUUCUACAGUCCGACGAUCAAGUUCAAAGACUAACCUGUAGCAAUCAGACUUUCCAAAAGGGGGUUCUCCAUUUUUUGUAGUUUUGUCUAAAUUUUUAAUGACCAUUUCCUGGAAUCAGUUUAUUAUACUGAAAACUGGCAACAGAGGAUUGAGCAUCA
# B19: chr2:65312585:65312700:-|3pUTR|ENSG00000198369|unk|total|mutant (ssRNA)
# RNA: GGGAGUUCUACAGUCCGACGAUCUGGACCAGGGCCCGAAUGGGGAUUUCAGGUUUCUAUGAGCCUCCCCAUUACCCCUAAAGCCGAACAUUUUUUAAAUUGUGUUGCCACCACUUCUAAAAAUUCCGCAAUAUCCGAACCGGACAACAGAGGAUUGAGCAUCA
# B20: chr5:122065063:122065164:-|3pUTR|ENSG00000113083|msi1|total|mutant (ssRNA)
# RNA: GGGAGUUCUACAGUCCGACGAUCUCAACUGGCGGAUACCGCGGUACAUAUGAUCCUCCGCCACCAGGGCACAAGCUUACCAGCCGACAAUACAGACAGAGCUUUUGUUGAGCUGUAACUGAGCUAUGGAACCGCUUCUUUGAUCAACAGAGGAUUGAGCAUCA
# B21: ENSG00000198589:be:win_1951|CDS|ENSG00000198589|bound_else_gene|NA|bound_elsewhere_windowed (ssRNA)
# RNA: GGGAGUUCUACAGUCCGACGAUCAUGCUUUCUCUACGAGCAUUCUUGUUGAUGUUCAUUAAGCAAUUAGUGAUGAAGGAUUCUGGAGUAAAGGAAGAUGAAUUACAGGCCAUUCUUAAUUACCUACUGACUAUGCAUGAGGAUCAACAGAGGAUUGAGCAUCA
# B22: chr17:4669773:4671531:-|three_prime_utr|ENSG00000141456|control|control|control (ssRNA)
# RNA: GGGAGUUCUACAGUCCGACGAUCACUUCAUCGAUUGUCCCCCUGAUGAUGAGAAGCCACCACCUCCCACAGAGCCUGACUCCUAGCCAUCUUCUGCACCCCACUCUUUGUUUCCAAUAAAGUUAUGUCCUUAGAUAGCGACUGCAACAGAGGAUUGAGCAUCA
# Biological target: MSI1 full-length (mouse, UniProt Q61474 1-362)
# Assay: nsRBNS (natural sequence RNA bind-n-seq); RBNS binding buffer (assumed for nsRBNS): 25 mM Tris pH 7.5, 150 mM KCl, 3 mM MgCl2, 0.01% Triton X-100, 500 ug/ml BSA, 20 U/ml SUPERase-In, 4 C; UNK is unkempt and MSI1 is Musashi-1; names of the RNAs are library labels; protein concentration not given here; high values mean tight binding
# Chain of UniProt Q61474 (Q61474 whole entry): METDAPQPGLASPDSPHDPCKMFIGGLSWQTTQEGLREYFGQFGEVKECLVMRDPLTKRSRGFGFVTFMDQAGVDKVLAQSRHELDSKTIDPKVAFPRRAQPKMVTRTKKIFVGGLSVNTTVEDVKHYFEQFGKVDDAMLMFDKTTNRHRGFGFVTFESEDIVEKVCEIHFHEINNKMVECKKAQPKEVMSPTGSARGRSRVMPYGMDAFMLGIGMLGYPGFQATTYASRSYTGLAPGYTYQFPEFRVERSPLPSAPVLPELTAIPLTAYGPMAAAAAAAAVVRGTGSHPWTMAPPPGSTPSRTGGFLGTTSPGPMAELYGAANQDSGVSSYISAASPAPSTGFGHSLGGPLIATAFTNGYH
row,Binder,binding signal [enrichment R]
1,B1,0.404
2,B2,0.662
3,B3,0.231
4,B4,0.199
5,B5,0.673
6,B6,0.42
7,B7,0.216
8,B8,0.901
9,B9,0.398
10,B10,0.284
11,B11,11.5
12,B12,0.773
13,B13,21.1
14,B14,1.25
15,B15,0.293
16,B16,0.285
17,B17,0.495
18,B18,3.75
19,B19,0.277
20,B20,0.396
21,B21,0.339
22,B22,1.25
